Hit rate of the full screen: of about 230,000 compounds, about 3,600 (1.6%) were called active. The shares of active, inactive and inconclusive entries below differ from those in the screen. Calls come from the whole dose curve; as a rule, active = well fitted inhibition curve with a large enough effect (not every such curve was filed as active); inconclusive = small, poorly fitted or top-dose-only effect, or another doubt; inactive = no such curve, though single readings can be large or run the other way. A potency beside an inconclusive call is a rough fit, not a confirmed value.
What follows are compounds tested against Lysine-specific demethylase 4E (Homo sapiens) (UniProt B2RXH2) (assay: qHTS Assay for Inhibitors of Human Jumonji Domain Containing 2E (JMJD2E)). Details: JMJD2E catalytic domain, FDH-coupled NADH fluorescence (FDH is formaldehyde dehydrogenase); series mostly up to 57.1 µM.
Sequence of UniProt B2RXH2 (B2RXH2 whole entry, looked up, the tested form may be a part): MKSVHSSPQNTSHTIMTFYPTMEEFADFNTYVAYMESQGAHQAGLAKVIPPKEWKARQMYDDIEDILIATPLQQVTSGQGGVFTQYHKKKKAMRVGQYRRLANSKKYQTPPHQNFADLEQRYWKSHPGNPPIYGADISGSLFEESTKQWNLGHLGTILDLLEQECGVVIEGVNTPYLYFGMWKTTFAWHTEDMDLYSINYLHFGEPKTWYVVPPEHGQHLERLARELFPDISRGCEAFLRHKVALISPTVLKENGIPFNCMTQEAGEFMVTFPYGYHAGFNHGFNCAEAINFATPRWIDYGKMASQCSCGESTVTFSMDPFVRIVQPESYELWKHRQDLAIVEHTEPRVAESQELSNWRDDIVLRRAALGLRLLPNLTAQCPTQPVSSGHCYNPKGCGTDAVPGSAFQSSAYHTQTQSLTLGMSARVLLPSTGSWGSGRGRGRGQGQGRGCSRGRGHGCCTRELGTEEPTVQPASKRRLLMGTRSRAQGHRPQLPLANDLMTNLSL
Note: nearly all actives have a fitted effect of over 50% in size.
Potency is the fitted concentration of half-maximal effect; tags give direction and shape of the fitted curve.

Structure (SMILES)	Potency
CCOC(=O)c1c(N)sc(C(=O)Nc2ccccc2)c1C	inactive
Cc1cccc(NC(=O)CN2C(=O)N/C(=C/c3cc(C)n(C(C)C)c3C)C2=O)c1	inconclusive: 28.2 µM [inhibitor, single point]
CC(=O)Oc1ccc(C2OC(=O)c3ccccc3N2C(C)=O)cc1 (stereo not drawn)	inconclusive: 25.1 µM [inhibitor, partial curve]
Cc1nc(N2CCN(Cc3ccc(Cl)cc3)CC2)c2oc3ccccc3c2n1	inconclusive: 35.5 µM [inhibitor, single point]
Cc1ccc(NCc2n[nH]c(=S)n2-c2ccccc2)cc1	inconclusive: 17.8 µM [inhibitor, partial curve]
Oc1ccc2ccccc2c1N=Nc1ccccc1F	inconclusive: 39.8 µM [inhibitor, single point]
NC(=O)c1cc[n+](CC(=O)c2ccc(NC(=O)c3ccccc3)cc2)cc1	active: 12.6 µM
COc1cccc(C(=O)N2CCN(CCCc3ccccc3)CC2)c1OC	inconclusive: 39.8 µM [inhibitor, single point]
COc1ccc(OC)c(-n2c(Cn3c(-c4ccccn4)nc4ccccc43)n[nH]c2=S)c1	inconclusive: 28.2 µM [inhibitor, single point]
CCc1ccc(NC(=O)c2noc3c2CCC3)cc1	inactive
O=C(Cn1c(SCc2ccccc2)nc2ccccc21)N1CCOCC1	inactive
COc1ccc2c3c(c(=O)oc2c1OCC(N)=O)CCCC3	inconclusive: 28.2 µM [inhibitor, partial curve]
Cc1cccc(OCC(=O)NCC(=O)N/N=C/c2ccc(O)cc2O)c1	active: 3.16 µM
CC(C)(C)NC(=O)COC(=O)c1snc(C(=O)NC2CCCCC2)c1N	inconclusive: 31.6 µM [inhibitor, partial curve]
Cc1cc(C)cc(NC(=O)Cn2c(SCc3cc(C)ccc3C)nc3ccncc32)c1	inconclusive: 39.8 µM [inhibitor, single point]
O=S(=O)(c1ccc(F)cc1)n1ccc2cccnc21	inactive
CC(C)C[C@@H](CC(=O)N[C@@H](CCC(=O)O)CC(=O)O)NC(=O)[C@@H]1CCCC[C@H]1NC(=O)C[C@@H](NC(=O)C[C@H](Cc1c[nH]c2ccccc12)NC(=O)[C@@H]1CCCC[C@H]1N)C(C)C	active: 15.8 µM
CCOC(=O)c1cc(C#N)c(SCC(=O)OC)[nH]c1=O	inconclusive: 25.1 µM [inhibitor, partial curve]
COCC1CCCN(C(=O)c2ccc(OC3CCN(Cc4ccccn4)CC3)cc2)C1 (stereo not drawn)	inactive
O=C(Cc1ccc(Cl)cc1)Nc1ccc2c(c1)C(=O)NC2=O	inconclusive: 7.94 µM [inhibitor, partial curve]
Cc1ccccc1OCC(=O)NNC(=S)NC(=O)c1ccco1	inconclusive: 39.8 µM [inhibitor, single point]
CCn1cnc2cc(NCc3nc4ccccc4n3Cc3ccccc3)ccc21	inconclusive: 35.5 µM [inhibitor, single point]
COCCn1c(SCc2nc3ccccc3c(=O)[nH]2)nnc1-c1ccncc1	inactive
COc1ccccc1/C=C/C(=O)OCCCN(C)C	inconclusive: 28.2 µM [inhibitor, partial curve]

Structure (SMILES)	Potency
O=C(NC(=S)N(CCc1ccccc1)CCc1ccccc1)c1ccco1	inactive
CCOc1ccccc1/C=C(/C#N)C(N)=O	inconclusive: 39.8 µM [inhibitor, single point]
CC(C)(O)C#Cc1ccc(CN2CCCC(CO)(Cc3cccc(Cl)c3)C2)cc1 (stereo not drawn)	inactive
Cc1onc(C(=O)Nc2sc3c(c2C(N)=O)CCCC3)c1[N+](=O)[O-]	inactive
C=CCNC(=S)N/N=C/c1ccc(-c2cc(Cl)ccc2Cl)o1	inconclusive: 0.891 µM [inhibitor, single point]
COc1cc(/C=N/n2c(=S)[nH]nc(C)c2=O)cc([N+](=O)[O-])c1O	inactive
Cc1ccc(NC(=S)NCC2CCN(C(C)c3ccccc3)C2)cc1 (stereo not drawn)	inactive
CCC1(C)CC(CCN(Cc2ccco2)C(C)=O)(c2ccccc2)CCO1 (stereo not drawn)	inactive
O=C(NCC1CCCO1)c1ccc2c(=O)n(CC3CCCO3)c(=S)[nH]c2c1 (stereo not drawn)	inactive
O=C(CSc1ncn[nH]1)Nc1ccc(Cl)c(Cl)c1	inactive
Clc1cc(Br)ccc1OCCOCCOc1cccc2cccnc12	inconclusive: 39.8 µM [inhibitor, single point]
O=C1N(C2CCCC2)C[C@@H]2C[C@@H](c3cccn3-c3ccccn3)N3CCC[C@@]123	inactive
Cn1c(CCN2CCCCC2)nc2cc(NC(=O)NC3CCCCC3)ccc21	inconclusive: 17.8 µM [inhibitor, partial curve]
COc1cc2c(C)nc3c(cnn3-c3ccccc3)c2cc1OC	inconclusive: 35.5 µM [inhibitor, partial curve]
COc1ccc(Cn2c(=O)[nH]c3cc(C(=O)NCCCOC(C)C)ccc3c2=O)cc1	inconclusive: 5.62 µM [inhibitor, single point]
CCc1cc2c(=O)c(-c3nc4ccccc4n3C)coc2c(CN2CCN(C)CC2)c1O	inconclusive: 20 µM [inhibitor, partial curve]
CN(CCCNC(=O)C1CCCN(S(=O)(=O)c2cnc[nH]2)C1)c1ccccc1 (stereo not drawn)	inactive
Cc1ccc(Nc2nc(C(=O)NCCCN3CCOCC3)cs2)cc1	inactive
Cc1cccc(N2CCN(c3nc4nonc4nc3N3CCSCC3)CC2)n1	inconclusive: 25.1 µM [inhibitor, partial curve]
Cc1ccc(NC2=NCC(=O)N2Cc2ccc3c(c2)OCO3)c(C)c1	inactive
c1ccc(Nc2nc(-c3ccncc3)nc3ccccc23)cc1	inconclusive: 35.5 µM [inhibitor, single point]
O=C(NNc1ccc(-c2csnn2)cc1)c1ccccc1C(F)(F)F	inactive
N=C1/C(=C\c2ccc(OCc3ccccc3)cc2)C(=O)N=C2SC(N3CCCC3)=NN12	inactive
Nc1c(C(=O)Nc2ccccc2)sc2nc(-c3cccnc3)ccc12	inactive
